Results taken from PubChem BioAssay AID485367 (National Center for Advancing Translational Sciences (NCATS), 2010).
Out of some 330,000 compounds screened, about 560 (0.17%) were called active. The inconclusive results got no clear call from the source; some entries with a clear call stand among them for comparison. Calls follow the shape of the dose curve; as a rule, active = well fitted inhibition curve with a large enough effect; inconclusive = small, poorly fitted or top-dose-only effect, or effect the other way; inactive = flat fitted curve, though single readings scatter. No potency is given beside an inconclusive call; the fits are too rough.

Each compound was assayed against ATP-dependent 6-phosphofructokinase (Trypanosoma brucei brucei) (UniProt O15648) (assay: qHTS Assay to Find Inhibitors of T. brucei phosphofructokinase). Conditions: T. brucei PFK, ADP-Glo luminescence; activity, negative = inhibition: at 57.5 µM (top of the series).
Chain of UniProt O15648 (O15648 whole entry, looked up): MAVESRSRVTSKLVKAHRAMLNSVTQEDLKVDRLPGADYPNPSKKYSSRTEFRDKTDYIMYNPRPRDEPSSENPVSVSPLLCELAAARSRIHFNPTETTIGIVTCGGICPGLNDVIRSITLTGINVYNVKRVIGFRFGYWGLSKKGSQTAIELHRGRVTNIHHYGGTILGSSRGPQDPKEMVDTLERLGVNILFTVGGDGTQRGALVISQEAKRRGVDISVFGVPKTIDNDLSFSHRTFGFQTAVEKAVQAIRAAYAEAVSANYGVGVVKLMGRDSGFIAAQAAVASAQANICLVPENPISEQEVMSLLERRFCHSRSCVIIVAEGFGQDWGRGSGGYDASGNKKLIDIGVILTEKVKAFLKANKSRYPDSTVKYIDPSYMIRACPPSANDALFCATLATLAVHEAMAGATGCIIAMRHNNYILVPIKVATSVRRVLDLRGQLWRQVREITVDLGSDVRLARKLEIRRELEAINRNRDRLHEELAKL
How it was run: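 Activity is normalized to no-enzyme wells (full inhibition) and 1.25 nM enzyme wells (no inhibition). Reaction: 0.5 mM F6P, 0.1 mM ATP, 45 min RT, ADP-Glo luminescence; concentration-response curves fitted and classed by quality.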
Also: nearly all actives have a fitted effect of over 60% in size.
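For activity, negative = inhibition in this document: 0% = uninhibited 1x PFK enzyme wells and -100% = no-enzyme wells.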
Potency is read from the fitted curve at half-maximal effect; tags tell the direction and shape of the fitted curve.

Row | SMILES | activity, negative = inhibition | Potency
1 | CN(C)CCCN1c2ccccc2CCc2ccc(Cl)cc21 | inactive: 3.58% | 
2 | CC(OC(=O)c1ccc([N+](=O)[O-])s1)C(=O)Nc1ncc(Cl)cc1Cl (stereo not drawn) |  | inconclusive [activator, single point]
3 | CSc1ccc(C(=S)N2CCN(CCO)CC2)cc1 |  | inconclusive [falling, partial curve]
4 | CC(Nc1cccc2ccccc12)C(=O)N/N=C/c1ccc([N+](=O)[O-])cc1 (stereo not drawn) | inactive: 14% | 
5 | O=C(COC(=O)COc1ccccc1)NCCC1=CCCCC1 | inactive: 0.844% | 
6 | CC(NC(=O)c1sc2cc([N+](=O)[O-])ccc2c1Cl)C(C)(C)C (stereo not drawn) |  | inconclusive [falling, full curve]
7 | O=C(O)C(C(=O)/C=C/c1ccco1)=C1SCCS1 |  | inconclusive [falling, single point]
8 | O=c1c2ccccc2nc2c3ccccc3c(NCCN3CCOCC3)nn12 | inactive: 3.99% | 
9 | Fc1ccc(NC(=S)Nc2ccccc2N2CCOCC2)cc1Cl |  | inconclusive [falling, partial curve]
10 | CCC1Sc2ccc(S(=O)(=O)CCC(=O)Nc3c(Cl)cc(OC)cc3OC)cc2NC1=O (stereo not drawn) |  | inconclusive [falling, single point]
11 | CCN(CC(=O)Nc1ccc2c(c1)OCCO2)C(=O)CC(NC(C)=O)c1ccccc1 (stereo not drawn) |  | inconclusive [falling, single point]
12 | CCCCCCOC(=O)c1ccc(N)cc1 |  | inconclusive [falling, single point]
13 | c1ccc(Cn2cc(-c3ccccc3)cn2)cc1 |  | inconclusive [falling, single point]
14 | CCN(CC)c1ccc(/C=N/OCC(=O)Nc2cccc(C)c2)cc1 | inactive: 0.0447% | 
15 | CC1(C)Cc2c(sc3c2c(=N)n(Cc2ccco2)c(=O)n3Cc2ccc(Cl)cc2)CO1 | inactive: 0.628% | 
16 | Cc1ccccc1NS(=O)(=O)c1ccc2[nH]cc(C(=O)N3CCCCC3)c(=O)c2c1 | inactive: -20.3% | 
17 | Cc1cccc(CN2CCC(n3nccc3NC(=O)c3ccccc3C)CC2)n1 |  | inconclusive [falling, single point]
18 | Cc1cc2nc(/C(C#N)=C\c3ccc(-c4ccccc4C(=O)O)o3)[nH]c2cc1C | inactive: -29.2% | 
19 | O=C(OCc1cc(=O)n2ccsc2n1)c1ccccc1NCCO |  | inconclusive [falling, single point]
20 | Cn1c(=O)c(=O)n(C)c2cc(S(=O)(=O)CCC(=O)Nc3ccc(F)cc3)ccc21 | inactive: 0.947% | 
21 | COc1cccc2cc(C(=O)OCC(=O)NC3CCCC(C)C3C)c(=O)oc12 (stereo not drawn) | inactive: 4.41% | 
22 | CCOC(=O)c1c(NC(=O)c2nn(CC)cc2Br)sc(C)c1C | inactive: -5% | 
23 | O=C(CSc1cccc2cccnc12)OCC(=O)c1ccc(Br)cc1 | inactive: 0.915% | 
24 | CN(C(=O)CSc1cc(C(=O)c2nccn2C)c2ccccc2n1)c1ccccc1 | inactive: -0.433% | 
25 | Cc1ccc(O)c(/C=N/NC(=O)c2[nH]ncc2Br)c1 |  | inconclusive [activator, single point]

Row | SMILES | activity, negative = inhibition | Potency
26 | O=C(Nc1ccc2nn(-c3ccccc3)nc2c1)c1ccco1 |  | inconclusive [falling, single point]
27 | CN(Cc1ccccc1)C1=CC(=[N+]2CCCCC2)CC(C)(C)C1 |  | inconclusive [falling, single point]
28 | O=C(NCc1cccc(Cl)c1)c1ccco1 |  | inconclusive [falling, partial curve]
29 | CCOc1nnc(C)c2c(C)n(-c3cccc(OC)c3)nc12 |  | inconclusive [falling, single point]
30 | Cc1ccc(NC(=O)CN2C(=O)S/C(=C/c3ccc(-c4cc(C(=O)O)ccc4C)o3)C2=O)cc1C |  | inconclusive [falling, single point]
31 | CC1CCN(C(=O)COC(=O)/C=C/c2ccco2)CC1 |  | inconclusive [falling, single point]
32 | CCOc1cc(/C=C2\C(=O)NN(c3ccccc3)C2=O)cc([N+](=O)[O-])c1O |  | inconclusive [activator, single point]
33 | COc1cc(-c2nc(=S)[nH][nH]2)cc(OC)c1OC |  | inconclusive [falling, single point]
34 | Cc1ccc(CNC(=O)[C@]2(C)CCC[C@@]3(C)C4CC[C@@]5(C)C[C@]4(CCC32)CC5=O)cc1 (stereo partly drawn) |  | inconclusive [falling, single point]
35 | CC(=O)CCS(=O)(=O)c1ccc(C)c(C)c1 |  | inconclusive [activator, partial curve]
36 | Cc1ccc(-c2nnn3c2nc(NCCc2ccc(S(N)(=O)=O)cc2)c2ccccc23)cc1 |  | inconclusive [falling, full curve]
37 | COc1ccccc1CCNC(=O)Cn1c(=O)oc2ccccc21 | inactive: -6.64% | 
38 | CCCCCC[N+](C)(C)CCSSCC[N+](C)(C)CCCCCC |  | inconclusive [falling, partial curve]
39 | COC(=O)CCN1CCN(S(=O)(=O)c2ccccc2Br)CC1 |  | inconclusive [activator, single point]
40 | CCOC(=O)COc1nc(-c2ccco2)cc(-c2ccco2)c1C#N | inactive: -4.26% | 
41 | Cc1oc(=O)c(NC(=O)c2cccc(Cl)c2)cc1C(=O)c1ccccc1 |  | inconclusive [falling, single point]
42 | CC(=O)c1ccc(S(=O)(=O)Nc2ccc(-c3ccc4nncn4n3)cc2)cc1 |  | inconclusive [falling, single point]
43 | CC(C)(C)CC(=O)Nc1cc(S(=O)(=O)N2CCOCC2)ccc1N1CCCC1 |  | inconclusive [activator, partial curve]
44 | O=C(Oc1ccc2c(c1)OCO2)c1cc2c(s1)CCC2 |  | inconclusive [falling, full curve]
45 | S=C(NNC(=S)Nc1ccccc1)Nc1ccccc1 | inactive: -8.76% | 
46 | CC(/C=N/NC(=O)c1cc(-c2cccs2)[nH]n1)=C\c1ccccc1 |  | inconclusive [activator, single point]
47 | O=C(CCN1C(=O)/C(=C\c2ccco2)SC1=S)Nc1ccc(C(=O)O)c(O)c1 |  | inconclusive [falling, single point]
48 | COc1ccc(CSc2nnnn2-c2ccccc2)cc1 | inactive: 0.945% | 
49 | O=C1Nc2ccccc2C1=Nc1cccc([N+](=O)[O-])c1 |  | inconclusive [falling, single point]
50 | O=C(COC(=O)/C=C/c1ccccc1[N+](=O)[O-])NNC(=O)c1ccc(F)cc1 |  | inconclusive [activator, single point]

Row | SMILES | activity, negative = inhibition | Potency
51 | CN1C(=O)c2ccccc2N(C)C1c1ccc2c(c1)OCO2 (stereo not drawn) | inactive: -1.51% | 
52 | O=C(C1=C(O)C(=O)N(CCCN2CCOCC2)C1c1ccccn1)c1cc2ccccc2o1 (stereo not drawn) | inactive: 3.45% | 
53 | C=CCn1c(SCC(=O)c2c(C)[nH]c3ccccc23)nnc1-c1ccncc1 |  | inconclusive [falling, single point]
54 | CCC(=O)N1c2ccc(S(=O)(=O)NCc3ccco3)cc2CC1C (stereo not drawn) |  | inconclusive [falling, single point]
55 | CCC(C)(C)C1CCC(NC(=O)c2ccc(S(=O)(=O)N3CCOCC3)cc2)CC1 (stereo not drawn) | inactive: -1.02% | 
56 | CCCN(CC(=O)Nc1ccccc1OC)C(=O)Cc1ccc2c(c1)CCC2 |  | inconclusive [falling, single point]
57 | CCOC(=O)C1=C(C)N=C2SC(C(=O)OC)=CC(=O)N2C1c1ccc(OC)cc1 (stereo not drawn) |  | inconclusive [activator, single point]
58 | CC(c1ccccc1)n1c(NCCCn2ccnc2)nc2c1c(=O)[nH]c(=O)n2C (stereo not drawn) |  | inconclusive [falling, single point]
59 | CCn1c(SCC(=O)NC(=O)NCc2ccco2)nc2sc(C)c(C)c2c1=O |  | inconclusive [falling, full curve, poor fit]
60 | CSc1nc(Oc2ccc(F)cc2F)cc(C(F)(F)F)n1 | inactive: 1.07% | 
61 | Cc1ccc(-n2c(SCc3cc(=O)n4ccsc4n3)nnc2-c2cccnc2)c(C)c1 |  | inconclusive [falling, partial curve]
62 | CCOc1ccccc1NC(=O)Cc1cccs1 |  | inconclusive [falling, single point]
63 | COc1ccc(/C=N/NC(=O)c2cc(O)c(O)c(O)c2)cc1Cn1cc([N+](=O)[O-])cn1 | inactive: -15.2% | 
64 | Cc1c(NC(=O)C2C3C=CC(C3)C2C(=O)O)c(=O)n(-c2ccccc2)n1C (stereo not drawn) |  | inconclusive [falling, single point]
65 | O=C(O)c1cccc2c1C(=O)c1cc(Br)ccc1S2(=O)=O |  | inconclusive [activator, partial curve]
66 | CC(C)[N+](C)(C)CC#CC(O)(c1ccccc1)c1ccccc1 | inactive: 0.0633% | 
67 | O=[N+]([O-])c1cc2c(cc1CN1CCN(c3ccccc3F)CC1)OCO2 | inactive: -4.02% | 
68 | Oc1ccc2ccccc2c1C=NCc1cn2ccsc2n1 |  | inconclusive [falling, single point]
69 | Oc1ccc(/C=N/NC(=S)Nc2cccnc2)c(O)c1O |  | inconclusive [falling, partial curve]
70 | OC[C@@H]1[C@@H](c2ccc(Cl)cc2)C(c2cccc(Cl)c2)=NN1c1ccccc1 | inactive: 3.86% | 
71 | Cc1cc(C(C)(C)C)ccc1OCCOCCN1CCCC1 |  | inconclusive [activator, single point]
72 | CN(C(=O)CSc1nnc(CNC(=O)c2ccccc2)o1)c1ccccc1 | inactive: 2.72% | 
73 | O=C(O)CCc1nn2c3ccccc3n(CC(=O)c3cccs3)c2nc1=O | inactive: 15.3% | 
